# Assay results from PubChem BioAssay AID463173 (ICCB-Longwood Screening Facility, Harvard Medical School, 2010).
# About 1,700 (3.3%) of roughly 52,000 compounds were called active. Rule as the data show it: active = survival mostly below about 52% (no sharp cut-off); inactive = mostly above about 56%. This is one part of the list.
# System: Wild type
# Experiment: growth inhibition of S. aureus wild type versus tarO mutant, primary screen, teichoic acid synthesis inhibitors, RN4220, OD600 (AID 463173)
# Settings: S. aureus RN4220 wild type/DeltatarO growth, OD600, 18 h, stronger effect = lower value, screened at 18.75 µg/mL (by protocol)
row,Compound,survival
1,COc1cc(OC)c(N(C)C(=O)C2CCCN(c3ncnc4c3nc3n4CCCCC3)C2)cc1Cl (centres undefined),inactive: 76%
2,Cn1c(=O)c(=O)n(C)c2cc(S(=O)(=O)CCC(=O)Nc3cccc(C(F)(F)F)c3)ccc21,inactive: 86%
3,CC1CCCN(Cc2c(O)ccc3c(=O)c(Oc4ccc(C(C)(C)C)cc4)c(C(F)(F)F)oc23)C1 (centres undefined),inactive: 58%
4,Cc1onc(-c2ccccc2)c1C(=O)Nc1ccc(S(=O)(=O)Nc2ncccn2)cc1,inactive: 106%
5,COc1cc(NC(=O)Nc2nnc(N3CCCCCC3)s2)cc(OC)c1,inactive: 78%
6,O=C(N1CCOCC1)N1CCN(c2ccccc2)CC1,inactive: 98%
7,O=C1N/C(=N/N=C\c2ccco2)SC1Cc1cccc(C(F)(F)F)c1 (centres undefined),inactive: 114%
8,COc1ccc(/C=C\C(=O)NC2CC(=O)N(c3ccc(F)cc3)C2)cc1OC (centres undefined),inactive: 68%
9,COc1cccc(-n2c(SCC(=O)Nc3cccc(Cl)c3)nc3c(oc4ccccc43)c2=O)c1,inactive: 71%
10,Cc1c(NC(=O)CC(C)C)cccc1-c1nc2cccnc2s1,inactive: 109%
11,O=C(CSc1cn(CCNC(=O)c2ccccc2F)c2ccccc12)Nc1ccccc1F,inactive: 60%
12,CS(=O)(=O)c1oc(-c2ccc(F)cc2)nc1S(=O)(=O)c1ccc(Cl)cc1,active: -1%
13,O=C(CSc1nc2c(sc3ccccc32)c(=O)n1CCCC(=O)NC1CCCC1)Nc1ccc(F)cc1,inactive: 90%
14,CCOc1ccccc1CNC(=O)c1ccc(-c2nc(CSc3ccc(C)cc3)c(C)o2)cc1,inactive: 71%
15,COc1ccc(-n2c(=O)c3c(C)c(C)sc3n(CC(=O)NCc3ccc(C)cc3)c2=O)c(OC)c1,inactive: 98%
16,O=C(NCc1ccc(F)cc1)C1CCCN(c2ncnc3onc(-c4ccc(F)cc4)c23)C1 (centres undefined),inactive: 136%
17,CCOC(=O)CNC(=O)c1ccc(-c2nn(C)c(=O)c3ccccc23)cc1,inactive: 67%
18,COc1ccc(Cl)cc1NC(=O)CSC1=Nc2ccccc2C2=NC(CC(=O)NC3CCCCC3)C(=O)N12 (centres undefined),inactive: 82%
19,Cc1ccc(Nc2c(-c3ccsc3)nc3cccc(C)n23)cc1,inactive: 19%
20,CCOC(=O)c1ccc2nsnc2c1,inactive: 94%
21,CCc1ccc(NCc2cc3ccc(OC)cc3n(CC(=O)Nc3ccc(C(C)C)cc3)c2=O)cc1,inactive: 79%
22,Cc1ccc(NC(=O)c2ccc3oc(=O)c(S(=O)(=O)c4ccccc4)cc3c2)cc1C,inactive: 72%
23,CC(NC(=O)C1CCN(C(=O)c2ccc(-n3ccc4ccccc43)s2)CC1)c1ccccc1 (centres undefined),inactive: 55%

row,Compound,survival
1,CC(SCc1ccccc1)C(=O)NCc1ccccn1 (centres undefined),inactive: 108%
2,COc1ccccc1NC(=O)C1=C(C)Nc2nc(SCc3ccc(Cl)cc3)nn2C1c1ccccc1Cl (centres undefined),inactive: 90%
3,Cc1ccc(NC(=O)Cn2nnc(-c3nc(-c4ccncc4)no3)c2N)c(C)c1,inactive: 69%
4,CC1CCN(C(=O)c2cc3c(=O)n(C)c4ccccc4c3s2)CC1,inactive: 83%
5,CCOC(=O)C1CCN(C(=O)CN2c3ccc(C(C)C)cc3-c3ccccc3S2(=O)=O)CC1,inactive: 111%
6,CCOc1ccc(OC(=O)c2cn(-c3cccc(OC)c3)c(=O)c3ccccc23)cc1,inactive: 64%
7,CCOC(=O)c1c(NC(C)=O)c2c3c(sc2n1Cc1ccc(Cl)cc1)CCCC3,inactive: 85%
8,COc1cc(C2NC(=O)N(C)C3=C2C(=O)N(c2cccc(Cl)c2)C3)ccc1O (centres undefined),inactive: 75%
9,O=C(O)c1ccc(NC(=O)C2C3C=CC(C3)C2C(=O)O)cc1 (centres undefined),inactive: 116%
10,CC(=O)c1cccc(NC(=O)C2=CC(c3ccc4c(c3)OCO4)=NS(=O)(=O)N2C)c1,inactive: 77%
11,Cc1ccc(CNC(=O)c2ccc(CSCc3ccccc3Cl)o2)cc1,inactive: 49%
12,Fc1ccccc1-n1ncc2c1ncn1nc(-c3ccccc3Cl)nc21,inactive: 84%
13,Cc1cccc(CNC(=O)C(=O)Nc2ccccc2C)c1,inactive: 78%
14,CC1CCCCN1CCCNC(=O)c1[nH]c2ccccc2c1Sc1ccc(Cl)cc1 (centres undefined),active: -1%
15,COc1ccccc1CNC(=O)CCC1N=C2c3ccccc3N=C(SCC(N)=O)N2C1=O (centres undefined),inactive: 87%
16,CC(=O)N1CCc2cc(CNC(=O)Nc3cc(Cl)ccc3C)ccc21,inactive: 88%
17,COc1ccc(Cn2c(CCC(=O)Nc3cccc(OC)c3)nc3cccnc32)cc1,inactive: 85%
18,CCc1ccc(CNC(=O)C2CCN(c3nc4ccccc4nc3C(F)(F)F)CC2)cc1,inactive: 88%
19,Cc1ccc(S(=O)(=O)NCC(c2ccc(N(C)C)cc2)N2CCc3ccccc32)cc1C (centres undefined),inactive: 129%
20,Cc1cccc(C)c1NC(=O)CSc1nc2ncccc2o1,inactive: 63%
21,CCN1C(=O)c2ccccc2Sc2ccc(NC(=O)Nc3ccccc3OC)cc21,inactive: 55%
22,Cc1ccc(NC(=O)c2c(NC(=O)Cc3ccccc3)sc3c2CCC3)cc1,inactive: 38%
23,COC(=O)Cc1c(C)c2cc3c(c(C)c2oc1=O)OCN(CCc1ccccc1F)C3,inactive: 87%

row,Compound,survival
1,CN(C)c1ccc(-c2nc3cnccn3c2Nc2cccc(C(F)(F)F)c2)cc1,inactive: 84%
2,COc1cccc(CNc2nccn(-c3cc(C)cc(C)c3)c2=O)c1,inactive: 63%
3,COc1ccc(NC(=O)Cn2c(=O)n(Cc3ccco3)c(=O)c3cc(OC)c(OC)cc32)cc1,inactive: 99%
4,COc1ccc2cc(-c3nc(Cl)c4c5c(sc4n3)CCCC5)c(=O)oc2c1,inactive: 60%
5,C=CCc1c(NCCO)nc(C)[nH]c1=O,inactive: 102%
6,Cc1ccc(-n2ncc(C(=O)NCCN3CCOCC3)c2C2CCN(C(=O)OC(C)(C)C)CC2)c(C)c1,inactive: 32%
7,CCCCN(CCCNC(=O)c1ccc(Sc2ccc(Cl)cc2)c(NC(C)=O)c1)c1ccccc1,inactive: 68%
8,Cc1ccc(NC(=O)CSC2=Nc3ccccc3C3=NC(Cc4ccccc4)C(=O)N23)cc1C (centres undefined),inactive: 83%
9,Cc1cc2c(cc1S(=O)(=O)CCC(=O)N1CCCC(C)C1)OCC(=O)N2 (centres undefined),inactive: 89%
10,Clc1ccc2nc(NCc3ccccc3)c3nncn3c2c1,inactive: 83%
11,Cc1c(Cl)cccc1NC(=O)Cn1cc(C(=O)C2CCCCC2)c2ccccc21,inactive: 74%
12,CCSc1ncc(Cl)c(C(=O)Nc2ccc(S(=O)(=O)N3CCC(C)CC3)cc2)n1,inactive: 93%
13,COCCn1c(CCC(=O)Nc2ccc(C)c(Cl)c2)nc2cccnc21,inactive: 84%
14,CC(C)(C)OC(=O)N1CCC(c2c(C(=O)NCc3ccccc3)cnn2-c2ccccc2)CC1,inactive: 73%
15,CCCCn1c(=N)c(S(=O)(=O)c2ccc(Cl)cc2)cc2c(=O)n3cccc(C)c3nc21,inactive: 67%
16,O=C(CC1CCCCC1)Nc1cccnc1,inactive: 96%
17,CC1CCC(NC(=O)c2ccc3c(c2)N(Cc2ccccc2)C(=O)c2ccccc2S3(=O)=O)CC1 (centres undefined),inactive: 137%
18,COc1ccccc1CNC(=O)CCc1c(C)nc2c(c(C)nn2-c2ccc(C)c(C)c2)c1C,inactive: 91%
19,O=C(NC(=O)c1ccccc1)Nc1ccc(-n2nc(C(F)(F)F)cc2C(F)(F)F)cc1,inactive: 162%
20,Cc1cccc(Nc2c(-c3cccs3)nc3nc(C)cc(C)n23)c1,inactive: 163%
21,CN(c1ccccc1C(=O)N1CCN(Cc2ccc3c(c2)OCO3)CC1)S(C)(=O)=O,inactive: 96%
22,CCc1ccc(CNC(=O)c2cc3c(=O)n(CC)c4ccccc4c3s2)cc1,inactive: 63%
23,CCOc1ccccc1CNC(=O)CN1C(=O)CSc2ccc(S(=O)(=O)N3CCOCC3)cc21,inactive: 73%

row,Compound,survival
1,COc1ccc(OC)c(NC(=O)Cn2c(=O)n(CC3CCCO3)c(=O)c3cc(OC)c(OC)cc32)c1 (centres undefined),inactive: 72%
2,COc1ccc(NC(=O)CN(C)S(=O)(=O)c2ccc3c(c2)CCC(=O)N3)c(OC)c1,inactive: 86%
3,CCc1ccc(NC(=O)CSc2nc3c(sc4ccccc43)c(=O)n2CCCOC)cc1,inactive: 73%
4,Cc1ccc(CNC(=O)c2cnc(N3CCCCC3)c3ccccc23)cc1,inactive: 71%
5,CCOC(=O)CNc1nc2ccccc2n2c(C)nnc12,inactive: 86%
6,O=C(c1ccc2c(c1)CCN2S(=O)(=O)c1ccccc1)N1CCN(c2cccc(Cl)c2)CC1,inactive: 70%
7,Cc1ccc(C)c(OCCn2cc(C(=O)c3cccs3)c3ccccc32)c1,inactive: 72%
8,CCSc1nc2ccc(C)cc2cc1C#N,inactive: 111%
9,Cc1cccc(C(=O)N2CCc3cc(CNC(=O)c4ccc(Br)o4)ccc32)c1,inactive: 87%
10,O=[N+]([O-])c1ccc(S(=O)(=O)NCc2nc3cccnc3n2Cc2ccccc2Cl)cc1,inactive: 74%
11,O=C(c1ccc(F)c(F)c1)N1CCc2ccccc2C1,inactive: 131%
12,CCOC(=O)/C(C#N)=C(\O)c1ccccc1,inactive: 104%
13,O=c1nc2c(-c3ccc(F)cc3Cl)n[nH]n2c2ccccc12,inactive: 72%
14,CC1CCCC(NS(=O)(=O)c2cccs2)C1C (centres undefined),inactive: 134%
15,COCc1cc(C)nc2sc(C(=O)Nc3ccc(OC(F)(F)F)cc3)c(N)c12,inactive: 88%
16,COc1ccc(C)cc1NC(=O)Cn1c(=O)nc(-c2ccccc2F)c2cc(Cl)ccc21,inactive: 82%
17,COC(=O)c1cc(NC(=O)C2CCCN(S(=O)(=O)c3c(C)n[nH]c3C)C2)cc(C(=O)OC)c1 (centres undefined),inactive: 141%
18,Cc1c(C(=O)OCC2CCCCC2)[nH]c2c1C(=O)CC(c1ccc(F)cc1)C2 (centres undefined),inactive: 134%
19,O=C(CSc1nncn2c1cc1occc12)Nc1ccccc1C(F)(F)F,inactive: 89%
20,CCc1ccccc1NC(=O)CN(c1cccc(C)c1C)S(C)(=O)=O,inactive: 72%
